From PubChem BioAssay AID1347071 (National Center for Advancing Translational Sciences (NCATS), 2019)
The campaign covered roughly 410,000 compounds. About 260 (0.063%) were called active. This list was built around the results that the source calls inconclusive (neither active nor inactive); the mix of calls is not that of the screen. The call rests on the fitted dose curve; in most records, active means well fitted activation curve with a large enough effect; inconclusive means small, poorly fitted or top-dose-only effect; inactive means no such curve, though single readings can be large or run the other way. Potencies of inconclusive entries are left out as doubtful fits.

assay: qHTS for compounds that reverse cellular toxicity of Amyloid beta (A-beta) peptide in yeast: Primary Screen; conditions: yeast expressing A-beta42, growth rescue, OD600, 48 h; growth rescue: at 46.1 µM (top of the series), 0% DMSO, 100% iron-clioquinol control; further: nearly all actives have a fitted effect of over 55% in size
How it was run: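 Yeast A-beta toxicity model in growth medium with pinned compounds, 48 h at 30 C; growth read as absorbance at 600 nm. Normalized to FeCl3/clioquinol equimolar mix (positive) and DMSO (negative).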
Potency means the concentration at half of the fitted maximal effect; tags describe the fitted curve by direction and shape.

SMILES | Potency | growth rescue
CCC(C)c1ccc(O)c(NC(=S)NC(=O)c2cccnc2)c1 (stereo not given) | inconclusive [activator, partial curve, poor fit] | 
CCS(=O)(=O)n1nc(-c2ccco2)nc1NCc1ccc(C(C)C)cc1 | inconclusive [activator, single point] | 
O=C(NNC(=S)Nc1cccc(Cl)c1)c1ccccc1 | inconclusive [activator, partial curve, poor fit] | 
CC(C)(C)CC(C)(C)c1ccc(O)c(Cc2ccc(Cl)cc2Cl)c1 | inconclusive [activator, single point] | 
O=S(=O)(Nc1cccnc1Cl)c1ccc2c(c1)OCCO2 |  | inconclusive: -96% [activator]
CC(C)NC(=O)/C(C#N)=C/c1ccc2c(c1)OCCO2 | inconclusive [activator, single point] | 
O=C(CCl)N(Cc1ccccc1)c1ccccc1 |  | inactive: -15.1%
O=C(Nc1ccc(N2CCOCC2)c(Cl)c1)c1cc(F)c(F)cc1Cl | inconclusive [activator, single point] | 
COc1ccc(OC)c(Nc2nc(=O)c3cccnc3s2)c1 | inconclusive [activator, partial curve, poor fit] | 
CCOc1ccc(NC(=S)Nc2ccccc2C2(C)CC2)cc1 | inconclusive [activator, single point] | 
Cc1cccc(NNC(=O)C(=O)NNc2cccc(C)c2)c1 | inconclusive [activator, partial curve, poor fit] | 
CCN1CCSc2ccc(C(=O)NCc3ccc(F)cc3)cc21 |  | inactive: -28.2%
COCCCN=C1NN=C(c2cc(C)n(Cc3ccccc3Cl)c2C)CS1 |  | inactive: -13.3%
COc1ccc(NC(=S)NC2CCCCC2)c(OC)c1 | inconclusive [activator, partial curve, poor fit] | 
Cc1c(CNC2CCCC2)c(C(=O)O)c(C)n1Cc1ccccc1 | inconclusive [activator, partial curve, poor fit] | 
COc1cc(/C=C2\OC(=O)c3c(OC)cccc32)ccc1O |  | inactive: -1.69%
Cc1cccc(CN2C(=O)[C@@H]3Cc4c([nH]c5ccccc45)C(C)(C)N3C2=O)c1 | active: 7.94 µM | 
CCCCCCSc1nnc(-c2cnn(-c3ccccc3)c2-n2cccc2)n1C |  | inactive: -31.1%
O=C1c2ccccc2CSc2c(O)cccc21 | inconclusive [activator, partial curve] | 
O=C(C1Cc2ccccc2CN1S(=O)(=O)c1ccc(F)cc1)N1CCCCCC1 (stereo not given) | inconclusive [activator, full curve, poor fit] | 
Cc1ccc(-n2c(Cn3cnc4ccccc43)nnc2SCC(=O)O)cc1 | inconclusive [activator, partial curve, poor fit] | 
COc1ccc(N2CCN(C(=O)C3COc4ccccc4O3)CC2)cc1 (stereo not given) | inconclusive [activator, partial curve, poor fit] | 
CCn1c(CN2CCOCC2)nc2cc(NC(=O)c3ccccc3[N+](=O)[O-])ccc21 |  | inactive: -8.92%
O=C(COc1ccccc1)N(Cc1cccnc1)c1nc2c(F)cccc2s1 |  | inactive: -23.9%

SMILES | Potency | growth rescue
Cc1nc2scc(C)n2c(=O)c1S(=O)(=O)Nc1ccc(N2CCN(S(C)(=O)=O)CC2)cc1 | inconclusive [activator, single point] | 
COc1ccccc1CNc1nc(-c2ccco2)nn1C(=O)c1cc(OC)c(OC)c(OC)c1 |  | inactive: -0.256%
CCc1ccccc1NC(=O)c1cc(S(=O)(=O)N2CCc3ccccc32)ccc1F | inconclusive [activator, single point] | 
CCOCCCNC(=S)Nc1ccc(Br)cc1Cl | inconclusive [activator, single point] | 
O=C1C=C(c2ccoc2)N2CCC[C@H]2C1 |  | inconclusive: -36.2% [activator]
Cc1cccc(N2CCN(C(=O)C3CCN(C(=O)c4cc5sccc5n4C)CC3)CC2)c1C | inconclusive [activator, partial curve, poor fit] | 
O=C(Nc1nnc(-c2ccc(Cl)cc2)o1)c1ccccc1Br | inconclusive [activator, partial curve, poor fit] | 
CC(C)(C)SCCNC(=O)CN(c1ccc(F)c(Cl)c1)S(C)(=O)=O |  | inactive: 14%
CCN(CC)S(=O)(=O)c1cccc(C(=O)N2CC(O)CC2C(=O)O)c1 (stereo not given) |  | inactive: -2.45%
CC1CCc2sc(C(=O)NNC(=S)NC3CC3)cc2C1 (stereo not given) | inconclusive [activator, partial curve, poor fit] | 
Cc1ccc(C(C)NC(=S)NCc2ccc(F)cc2)cc1C (stereo not given) | active: 14.1 µM | 
CC1Cc2cc(-c3csc(NC(=O)Cc4cccs4)n3)ccc2N1S(C)(=O)=O (stereo not given) | inconclusive [activator, single point] | 
COc1ccc(S(=O)(=O)N2CCC(NC(=O)OCc3c(Cl)cccc3Cl)CC2)cc1 | inconclusive [activator, full curve] | 
NNC(=S)Nc1ccc(Cl)cc1 | inconclusive [activator, single point] | 
Cn1c(NCC(O)c2ccccc2)nc2c1c(=O)n(Cc1ccc(Cl)cc1)c(=O)n2C (stereo not given) |  | inactive: -5.35%
COc1cccc(N2C(=O)Nc3ccc(Br)cc3C2(O)C(=O)NCCCN(C)C)c1 (stereo not given) | inconclusive [activator, full curve] | 
COc1ccccc1NCC(=O)N/N=C(\C)c1cccs1 | inconclusive [activator, single point] | 
O=[N+]([O-])C(=C1SCCS1)C(=C(Cl)Cl)N1CCCCC1 | inconclusive [activator, partial curve, poor fit] | 
CC(C)(O)c1[nH]c2ccc(C(F)(F)F)cc2c1C(C)(C)O | inconclusive [activator, single point] | 
CCOC(=O)/C=C/C(=O)OCC(=O)Nc1ccc(OC)c(Cl)c1 |  | inactive: -39.2%
CCCCCNC(=O)C(c1ccncc1)n1c(=O)c(-c2cc3ccccc3[nH]2)nc2ccccc21 (stereo not given) | inconclusive [activator, single point] | 
COc1ccc(C(C)(O)c2nc(-c3ccc(F)cc3OC)cs2)cc1 (stereo not given) | inconclusive [activator, single point] | 
C/C(=N\NC(=S)Nc1cccc(C)c1)c1cccc(N)c1 | inconclusive [activator, single point] | 
Oc1ccc(/C=N/NC(=S)NC2CC3CCC2C3)cc1 (stereo not given) | inconclusive [activator, single point] | 

SMILES | Potency | growth rescue
O=C(CSC1=NCCS1)Nc1ccc(S(=O)(=O)NC2CCCCC2)cc1 |  | inactive: -5.1%
Cc1cccc(NC(=O)Cn2c(=O)n(Cc3ccccc3)c(=O)c3sc4ccccc4c32)c1 |  | inactive: -10.1%
CCC(=O)Nc1nc(C)c(-c2csc(Nc3cccc(O)c3)n2)s1 | inconclusive [activator, partial curve] | 
CCSc1ccccc1C(=O)Nc1nc2ccccc2c(=O)[nH]1 | inconclusive [activator, single point] | 
C#CCOCCOCCOCCNc1nc(N2CCN(C(=O)CCCCCCCCCCNC(=O)[C@H]([C@@H](C)CC)n3cc(CCCCN=C(N)N)nn3)CC2)nc(N2CCN(C(=O)CCCCCCCCCCNC(=O)[C@@H]([C@H](C)O)n3cc(C)nn3)CC2)n1 |  | inactive: 4.3%
COc1ccc(CCNC(=O)Cn2nnc(-c3ccc(Cl)cc3)n2)cc1OC |  | inactive: 2.82%
Cc1nn2c(N3CCOCC3)c3c(nc2c1-c1ccccc1)CCCC3 | inconclusive [activator, partial curve, poor fit] | 
O=C(NC(=S)Nc1ccccc1Br)C1CCCC1 | inconclusive [activator, full curve, poor fit] | 
O=S(=O)(NCC(c1ccco1)S(=O)(=O)c1ccccc1)c1cc(F)ccc1F (stereo not given) |  | inactive: -1.9%
CSc1cccc(NC(=S)N(Cc2ccccc2)Cc2ccccn2)c1 | inconclusive [activator, single point] | 
O=C(OCn1nnc2ccccc2c1=O)C1CCCCC1 | inconclusive [activator, partial curve, poor fit] | 
CC1CC(C)(C)NC(=S)N1CCC(=O)N1CCc2ccccc21 (stereo not given) | inconclusive [activator, partial curve, poor fit] | 
COc1ccc(N(Cc2nnc3n2CCCCC3)C(=O)Nc2ccc(Cl)cc2)cc1Cl |  | inactive: -8.58%
COc1ccc(S(=O)(=O)Nc2ccccc2OC)cc1C | inconclusive [activator, full curve] | 
COc1ccccc1N1CCN(C(=O)c2cc3c(s2)-c2ccccc2OC3)CC1 | inactive | 
CC12C=CC(=O)C=C1CCC1C2C(O)CC2(C)C1CCC2(O)C(=O)CO (stereo not given) |  | inactive: 1.09%
O=C(Nc1nnc(-c2ccco2)o1)c1cccc2ccccc12 | inconclusive [activator, single point] | 
CC1=CC(C)(C)n2c(O)c(N=NC(N)=S)c3cccc1c32 | inconclusive [activator, single point] | 
O=C(NC(=S)NCCC1=CCCCC1)c1ccco1 | inconclusive [activator, partial curve, poor fit] | 
CN1CCN(C(=O)C2CCCN(S(=O)(=O)c3ccc(Cl)cc3)C2)CC1 (stereo not given) |  | inactive: 4.87%
COC(=O)C(C(=O)OC)c1ccccc1NS(=O)(=O)c1c(C)cc(C)cc1C |  | inactive: -2.25%
CC(C)c1ccc(NC(=S)Nc2ccc(OC(F)(F)F)cc2)cc1 | inconclusive [activator, single point] | 
